From PubChem BioAssay AID488969 (Vanderbilt High Throughput Screening Facility, 2010) come the findings set out here.

The full ranking holds about 110,000 compounds; the median of “z-score” is about -0.1, and the highest 2% start at about 2. Some of the results follow. Active and inactive are the calls of the source.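 Rule for the calls: active = z-score in the third read window above 3 or below -3; inactive = the rest.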

This test addresses Metabotropic glutamate receptor 8 (Rattus norvegicus) (UniProt P70579). Kind of test: rat mGluR8 modulators via GIRK flux, primary screen, cell-based, thallium flux, HTS (AID 488969). The following applies: HEK293 rat mGluR8, GIRK (G protein-gated inwardly rectifying potassium channel) thallium flux, FluoZin2; at 10 µM; stronger effect = higher value; submaximal glutamate (EC20) added with thallium.
Sequence of UniProt P70579 (P70579 whole entry, looked up): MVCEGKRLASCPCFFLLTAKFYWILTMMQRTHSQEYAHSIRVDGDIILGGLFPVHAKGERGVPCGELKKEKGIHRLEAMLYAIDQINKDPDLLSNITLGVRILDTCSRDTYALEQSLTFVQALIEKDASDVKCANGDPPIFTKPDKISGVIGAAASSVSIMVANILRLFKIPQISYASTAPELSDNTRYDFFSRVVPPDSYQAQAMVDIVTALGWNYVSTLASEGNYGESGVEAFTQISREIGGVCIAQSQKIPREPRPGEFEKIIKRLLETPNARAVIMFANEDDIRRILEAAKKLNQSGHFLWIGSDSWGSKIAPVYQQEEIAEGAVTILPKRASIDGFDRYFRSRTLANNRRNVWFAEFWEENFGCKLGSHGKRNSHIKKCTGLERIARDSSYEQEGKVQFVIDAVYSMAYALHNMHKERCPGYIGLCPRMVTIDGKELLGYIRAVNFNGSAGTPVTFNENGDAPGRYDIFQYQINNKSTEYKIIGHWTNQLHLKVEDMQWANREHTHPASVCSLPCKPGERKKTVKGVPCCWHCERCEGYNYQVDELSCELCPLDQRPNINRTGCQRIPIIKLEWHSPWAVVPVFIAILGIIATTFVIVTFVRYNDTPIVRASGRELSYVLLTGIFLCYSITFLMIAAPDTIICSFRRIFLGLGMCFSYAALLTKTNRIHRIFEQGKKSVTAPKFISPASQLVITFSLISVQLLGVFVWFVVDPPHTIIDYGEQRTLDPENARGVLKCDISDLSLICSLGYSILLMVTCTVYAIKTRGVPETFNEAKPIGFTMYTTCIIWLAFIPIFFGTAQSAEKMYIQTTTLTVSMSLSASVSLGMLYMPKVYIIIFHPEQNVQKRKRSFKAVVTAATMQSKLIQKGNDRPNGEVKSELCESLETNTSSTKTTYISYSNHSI
Consider `Cc1no[n+]([O-])c1COc1ccccc1/C=C1\NC(=S)NC1=O`, for which the z-score was -1.01.

With `Cc1ccc(Nc2nnc(SCC(=O)Nc3ncc(C(F)(F)F)cc3Cl)s2)cc1`, the z-score is -0.266.

`COc1ccc(-c2cc(C(=O)NCCCn3ccnc3)no2)cc1OC` came in with a z-score of -1.29.

The compound `COCc1ccc(O)c2ncccc12` registered a z-score of -0.0472.

`CNc1nc(C)c(C(=O)c2ccc(Cl)cc2)s1`: the z-score is -0.0829.

`O=c1nc2n(c3c4c(sc13)CCC4)CCC2` came in with a z-score of 0.00701.

For the compound `Cc1cc(NC(=O)CCCC(=O)Nc2ccc(F)cc2)no1`, the z-score is -0.204.

`FC(F)(F)c1cccc(N2CCN(C(=S)NC3CCCCC3)CC2)c1` came in with a z-score of -0.131.

Consider `COc1ccccc1CNC(=O)C(CC(C)C)NC(=O)C1CCC(C)CC1` (stereo unspecified), for which the z-score was -0.998.

`CN(C)CCN(C(=O)c1cccc(Cl)c1)c1nc2c(Cl)cccc2s1` showed a z-score of -0.0906.

`COc1ccc(S(=O)(=O)Nc2ccccc2C)cc1`: the z-score is 0.0937.

In the case of `COc1ccc(Nc2nc(-c3ccccc3)c3ccccc3n2)cc1`, the z-score was -2.27.

Compound `COc1ccc(CCNC(=O)c2sc3cc(C)ccc3c2Cl)cc1` registered a z-score of 0.196.

Compound `O=C1c2ccccc2C(=O)c2c(NCc3cccnc3)cccc21` showed a z-score of 0.309.

Compound `Cc1cc2c(c(=O)n1CCc1ccccc1)C(c1ccco1)C(C#N)=C(N)O2` (stereo unspecified) had a z-score of -0.0817.

`CCOc1ccc(N2C(=O)c3ccc(C(=O)OCc4c(C)noc4C)cc3C2=O)cc1` yielded a z-score of 0.255.

Compound `COc1ccc(CNC(=O)Cn2nc(C(F)(F)F)c3c2CCC3)cc1` registered a z-score of 0.215.

`Cn1cccc1/C=N/n1c(-c2ccccc2)n[nH]c1=S` displayed a z-score of -0.0516.

`O=C(CN1CCN(c2ccccc2)CC1)Nc1ccc(-n2cnnn2)cc1` displayed a z-score of 0.659.

As to `Cc1ccc(Oc2nc3c(c(=O)n(Cc4ccccc4F)c(=O)n3C)n2C)cc1`, the z-score is -0.729.

With `Cc1cccc(N2CCN(C(=O)COc3cccc4c3OC(C)(C)C4)CC2)c1C`, the z-score is -0.436.

Turning to `COc1ccccc1/C=C\C=N\n1c(C2CCCCC2)n[nH]c1=S`, the z-score was found to be 0.31.

In turn, `CCc1ccc(NC(=O)C2C3C=CC(C4CC34)C2C(=O)O)cc1` (stereo unspecified) yielded a z-score of -0.414.

The compound `Cc1occc1-c1nnc(SCC(=O)N2CCc3ccccc32)o1` displayed a z-score of 0.216.

For the compound `COc1ccccc1CN(C)C(=O)C1COc2ccccc2O1` (stereo unspecified), the z-score was -0.589.

With `CN1CCN(C(=O)C(C(=O)c2ccc(F)cc2)n2ccccc2=O)CC1` (stereo unspecified), the z-score stood at 0.934.

Regarding `COc1ccc(Cl)cc1N(CC(=O)Nc1ccccc1SC)S(C)(=O)=O`, the z-score came out at 0.203.

The compound `Cc1ccc2[nH]c(=O)c(CN(CC3CCCO3)C(=S)NCc3ccco3)cc2c1` (stereo unspecified) displayed a z-score of -0.397.

In turn, `Cc1ccc(S(=O)(=O)n2ccc(-c3ccc(OCc4c(F)cccc4Cl)cc3)n2)cc1` gave a z-score of -0.318.

`O=C(Nc1cccc(Cl)c1)N1CCSc2cc(Cl)ccc21` showed a z-score of -0.148.

On to `Nc1nc(SCC(=O)Nc2ccccc2Sc2ccc(Cl)cc2)n[nH]1`, for which the z-score was -0.434.

For the compound `Cn1c(N)c(C(=O)c2cc(-c3ccccn3)nc3ccccc23)c(=O)[nH]c1=O`, the z-score is -0.00479.

On to `CCOP(=O)(c1ccccc1)C(O)c1ccccc1` (stereo unspecified), for which the z-score is 0.189.

`Clc1ccccc1OCCn1ccnc1`: the z-score was -0.393.

In the case of `CC(C)C1=NN(C(=O)c2ccccc2)C(O)(C(C)(C)C)C1` (stereo unspecified), the z-score is -0.195.

Regarding `O=C(NNC(=O)c1ccccc1)C(=O)N1CCCCC1`, the z-score was 0.421.

For `Cc1ccc(Nc2nnc(SCC(=O)Nc3ccccc3[N+](=O)[O-])s2)cc1`, the z-score was -0.00778.

In the case of `Cc1ccc(/C(O)=C2\C(=O)C(=O)N(c3cc(C)on3)C2c2cccc(Br)c2)cc1` (stereo unspecified), the z-score is -2.98.

In turn, `Cc1ccc(C(=O)O/N=C\c2ccc(N3CCOCC3)c([N+](=O)[O-])c2)cc1` returned a z-score of -0.0662.

`COc1ccc(CCNC(=O)Cn2cnc3c(nnn3Cc3ccc(C)cc3)c2=O)cc1OC` returned a z-score of 0.156.

`CCc1c(C)sc2nc(C(C)C)nc(SCC(=O)N3CCc4ccccc4C3)c12` showed a z-score of 0.286.

In turn, `CCOC(=O)c1ccc(CS(=O)c2ccc(Cl)cc2)o1` (stereo unspecified) yielded a z-score of 0.0909.

With `COCCCn1c(CCC(=O)O)ccc1-c1ccc(F)cc1`, the z-score is -0.32.

Regarding `O=C(CCc1ccccc1O)N/N=C/c1ccc(Sc2cccc3cccnc23)o1`, the z-score was 0.341.

Compound `Cc1cc(C(=O)NCc2cccs2)cs1` had a z-score of 0.301.

For the compound `COc1ccccc1-n1c(C)cc(SC)c(C(C)=O)c1=S`, the z-score is -0.217.

`COc1ccc(/C=N/NC(=O)c2ccc3ccccc3c2)cc1OS(=O)(=O)c1ccc(NC(C)=O)cc1` returned a z-score of -0.25.

`O=C(O)C1CC(=O)N(c2ccc(OCc3c(F)cccc3Cl)cc2)C1` (stereo unspecified): the z-score is -0.212.

Take `COc1cc2c(cc1NC(=O)CCCN1C(=O)CCC1=O)oc1ccccc12`: the z-score is -0.139.

For the compound `Cc1cc(C)c2c(c1)cc(C)c1nnc(SCC(=O)N3CCCc4ccccc43)n12`, the z-score amounted to 0.0302.

Turning to `CC1Cc2ccccc2N1C(=O)c1cnc2n(c1=O)CCS2` (stereo unspecified), the z-score was found to be 0.27.

As for `Cc1c(C(=O)N2CCCCC2)oc2ccc(S(=O)(=O)N3CC(C)CC(C)C3)cc12` (stereo unspecified), the z-score amounted to 0.235.

The compound `CCOc1ccc(NC(=S)Nc2ccc(OCc3ccccc3)cc2)cc1` had a z-score of 0.269.

As for `Cc1nc2ccccc2nc1OCC(=O)NCc1ccc2c(c1)OCO2`, the z-score was -0.119.

`COc1cc(OC)cc(C(=O)NNC(=O)c2ccccc2Br)c1` registered a z-score of 1.21.

For `CCCN1C/C(=C/c2ccc3c(c2)OCO3)C(=O)/C(=C/c2ccc3c(c2)OCO3)C1`, the z-score was -0.565.

Turning to `CCOC(=O)CSc1nc2ccc(Nc3nc(N4CCOCC4)nc(N4CCOCC4)n3)cc2s1`, the z-score is active: -3.54.

`CCn1c(CC(=O)Nc2ccc(C)c(Cl)c2)nnc1SCc1ccc(Cl)c(Cl)c1` came in with a z-score of 1.63.

Turning to `O=C(CCS(=O)(=O)c1cccc2nsnc12)N1CCN(c2ccccc2F)CC1`, the z-score was 0.0952.

As to `Cc1ccc(C2NC(=S)NC3=C2N2CCC3CC2)cc1` (stereo unspecified), the z-score was -0.905.

Regarding `Cc1ccc(/C=N/NC(=O)c2ccoc2C)o1`, the z-score was -2.59.

`O=C(Nc1ccc2c(c1)CCC2)c1cnn2c1NC(c1ccco1)CC2C(F)(F)F` (stereo unspecified) gave a z-score of -0.0955.

On to `CCc1cc2c(SCC(=O)c3cccs3)ncnc2s1`, for which the z-score came out at 0.0546.

`CCOC(=O)c1sc(=S)n(-c2cc(F)ccc2F)c1N` registered a z-score of 0.378.

In turn, `CCOc1ccc(NC(=O)N2CCC(n3nnc4cc(C)ccc43)CC2)cc1` showed a z-score of -0.0596.

Consider `CN1CC(=O)N(CC(=O)NCc2ccc3c(c2)OCO3)C1=O`, for which the z-score is -0.14.

For the compound `Cc1ccc(S(=O)(=O)Cn2nnnc2C(C(C)C)N2CCN(C(=O)c3ccco3)CC2)cc1` (stereo unspecified), the z-score is -0.299.

Take `Cn1ncc(Cl)c1C(=O)N1CCc2ccccc21`: the z-score was -0.142.

Regarding `C=CCOc1ccc(/C(O)=C2/C(=O)C(=O)N(CCCN3CCOCC3)C2c2ccccc2)cc1` (stereo unspecified), the z-score is 0.258.

With `C=CCn1c(Cc2ccc(OC)cc2)nnc1SCc1nc2ccccc2c(=O)[nH]1`, the z-score was -0.334.

The compound `CCOc1ccc(-c2nn(-c3ccccc3)cc2/C=C(\C#N)S(=O)(=O)c2ccccc2)cc1C` displayed a z-score of 0.265.

Turning to `N=c1c(S(=O)(=O)c2ccccc2)cc2c(=O)n3ccccc3nc2n1CC1CCCO1` (stereo unspecified), the z-score was -0.579.

For `O=S(=O)(NCCOc1cccc2cccnc12)c1ccc(F)cc1`, the z-score was -0.153.

Take `COc1cc([N+](=O)[O-])ccc1NC(=O)Nc1nc2c(s1)CCCC2`: the z-score was -0.0831.

`CCn1c(CNC(=O)Cc2ccc(OC)cc2)nnc1SCC(=O)Nc1nccs1` returned a z-score of -0.181.

Turning to `CC(=O)N1CCN(C(=O)c2cccc(S(=O)(=O)Nc3ccc(C)cc3)c2)CC1`, the z-score is -0.477.

With `CCOC(=O)c1nn(-c2ccccc2)c2nc(Nc3ccccc3)cc(=O)n12`, the z-score is -0.146.

`Cc1ccc(Oc2ccc(OCC(=O)OC3CCS(=O)(=O)C3)cc2)cc1` (stereo unspecified): the z-score turned out to be 0.257.

Compound `Cc1oc2ccccc2c1-c1cn2c(n1)SCC2` registered a z-score of -0.0376.

Turning to `Cc1cc(NCc2ccccc2)nc2ccccc12`, the z-score came to 1.3.

Take `Cc1ccc(-c2noc(-c3cc4ccccc4oc3=O)n2)cc1`: the z-score is -0.185.

Regarding `Cc1cc(NC(=O)CSc2nc3c(sc4ccccc43)c(=O)n2CCc2ccccc2)n[nH]1`, the z-score came out at 0.145.

In turn, `CC(C)OP(=O)(OC(C)C)C1(O)C(=O)Nc2ccccc21` (stereo unspecified) yielded a z-score of -0.0437.

With `CN(C)CCNc1oc(-c2ccccc2F)nc1C#N`, the z-score is -0.282.

On to `COc1cc(/C=N/NC(=O)c2ccc(F)cc2)ccc1OC(=O)c1ccco1`, for which the z-score came to 0.177.

Turning to `C/C(CC(=O)Nc1ccc(N(C)C)cc1)=N\NC(=O)Cc1csc(N)n1`, the z-score was -0.244.

For the compound `Cc1c(NC(=O)c2ccc3c(c2)C(=O)N(CC2CCCO2)C3=O)cccc1C(=O)O` (stereo unspecified), the z-score is -0.0528.

With `COc1ccc(N(CCC#N)S(=O)(=O)c2ccc(Cl)cc2)cc1`, the z-score was -0.234.

Turning to `Fc1ccc(N=C2NN=C(c3cc(F)ccc3F)CS2)cc1`, the z-score was found to be 0.593.

As for `O=C(N/N=C/c1ccccc1Cl)c1n[nH]c2c1CCCC2`, the z-score was -0.191.

Regarding `CCOC(=O)C1=C(N)c2ccccc2CC1C(C)C` (stereo unspecified), the z-score is -0.175.

Take `CC1=C(C(=O)N2CCOCC2)C(c2cccc3ccccc23)NC(=S)N1` (stereo unspecified): the z-score was -0.194.

As to `CC1=C(C)CC(C(=O)NNC(=O)c2ccccc2)C(C(=O)O)C1` (stereo unspecified), the z-score is -0.0266.

Take `C=C(C)Cn1c(SCC(=O)NCc2ccco2)nc2sc3c(c2c1=O)CCC3`: the z-score is -0.558.

On to `CSc1nnc(Cn2c(=O)sc3ccccc32)n1CCc1ccccc1`, for which the z-score was -0.0459.

Consider `Cc1ccc(CNc2nc3ccccc3s2)s1`, for which the z-score is -0.103.

`CCCCCCCCC/C(=N\O)c1ccccn1` gave a z-score of -0.0604.

`O=C(O)COc1cccc2nsnc12` registered a z-score of 0.173.

`CSc1ccc(Cl)c(C(=O)NCC(C)C)c1` returned a z-score of -0.0039.

`COc1ccccc1OCCCCN1CCN(c2ccccc2OC)CC1` had a z-score of 0.115.

Compound `Cc1ccc(-n2c(SCC(=O)OC(C)C)nnc2-c2ccncc2)cc1` yielded a z-score of 0.194.

Take `O=C(N/N=C\c1ccc(-c2ccc(Cl)c(Cl)c2)o1)C(=O)N1CCCC1`: the z-score was -0.201.

With `CCCOc1ccc(C2c3c(oc4ccccc4c3=O)C(=O)N2CCCN2CCOCC2)cc1` (stereo unspecified), the z-score was determined as 0.214.

Consider `COc1ccc(CNC(=O)COC(=O)CCC2CCCCC2)cc1`, for which the z-score is -0.328.

`Cc1ccc(SCC(=O)NCc2ccco2)cc1` gave a z-score of 0.0101.

Turning to `O=C(c1cccnc1Nc1ccc2c(c1)CCC2)N1CCOCC1`, the z-score is -0.224.

Take `Cc1noc(C)c1COC(=O)C1CC(O)CN1S(=O)(=O)c1ccc(Cl)cc1` (stereo unspecified): the z-score was 0.202.

`CS(=O)(=O)N1CCN(c2ccc(Cl)cc2[N+](=O)[O-])CC1` registered a z-score of -0.298.

Compound `CCCOCn1cc(F)c(=O)[nH]c1=O` gave a z-score of -0.151.

For `CN(C)C=NC(=O)c1ccc(N2CCN(c3ncc(C(F)(F)F)cc3Cl)CC2)cc1`, the z-score was -0.0254.

Turning to `Cc1ccc(-c2csc3ncnc(-n4nnc5ccccc54)c23)cc1C`, the z-score is -0.0158.
